The text below walks through data of publication PMC6380343.

Chains of the proteins cited; added tags and fusions are not shown.
UniProt Q13895: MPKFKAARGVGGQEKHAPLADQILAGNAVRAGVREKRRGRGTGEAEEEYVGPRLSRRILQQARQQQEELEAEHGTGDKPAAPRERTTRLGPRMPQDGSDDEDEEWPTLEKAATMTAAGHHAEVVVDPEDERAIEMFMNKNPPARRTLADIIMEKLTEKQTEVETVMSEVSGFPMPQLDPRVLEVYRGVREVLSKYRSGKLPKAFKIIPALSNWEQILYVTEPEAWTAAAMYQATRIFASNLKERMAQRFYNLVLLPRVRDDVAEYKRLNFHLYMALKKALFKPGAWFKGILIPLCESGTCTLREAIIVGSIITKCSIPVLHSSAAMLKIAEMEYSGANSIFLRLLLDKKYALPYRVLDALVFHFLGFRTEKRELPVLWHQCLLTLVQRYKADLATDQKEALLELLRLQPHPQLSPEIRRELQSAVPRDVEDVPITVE
UniProt Q9UNQ2: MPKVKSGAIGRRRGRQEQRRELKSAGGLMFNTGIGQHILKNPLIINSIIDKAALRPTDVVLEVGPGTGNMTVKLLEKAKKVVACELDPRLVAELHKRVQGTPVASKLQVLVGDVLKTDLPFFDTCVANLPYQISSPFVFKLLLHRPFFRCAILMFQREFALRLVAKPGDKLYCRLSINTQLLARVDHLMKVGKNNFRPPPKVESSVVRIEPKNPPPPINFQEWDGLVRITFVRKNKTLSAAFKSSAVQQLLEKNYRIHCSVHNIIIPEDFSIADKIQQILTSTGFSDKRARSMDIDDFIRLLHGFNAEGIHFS
UniProt Q9NRX1: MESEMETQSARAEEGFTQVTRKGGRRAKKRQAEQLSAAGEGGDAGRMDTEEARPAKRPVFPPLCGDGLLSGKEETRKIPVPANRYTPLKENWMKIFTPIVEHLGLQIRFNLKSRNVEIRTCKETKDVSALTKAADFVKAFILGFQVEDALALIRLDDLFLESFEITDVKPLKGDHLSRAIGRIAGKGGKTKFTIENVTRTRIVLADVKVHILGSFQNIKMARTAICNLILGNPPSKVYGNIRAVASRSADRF
UniProt Q9BVS4: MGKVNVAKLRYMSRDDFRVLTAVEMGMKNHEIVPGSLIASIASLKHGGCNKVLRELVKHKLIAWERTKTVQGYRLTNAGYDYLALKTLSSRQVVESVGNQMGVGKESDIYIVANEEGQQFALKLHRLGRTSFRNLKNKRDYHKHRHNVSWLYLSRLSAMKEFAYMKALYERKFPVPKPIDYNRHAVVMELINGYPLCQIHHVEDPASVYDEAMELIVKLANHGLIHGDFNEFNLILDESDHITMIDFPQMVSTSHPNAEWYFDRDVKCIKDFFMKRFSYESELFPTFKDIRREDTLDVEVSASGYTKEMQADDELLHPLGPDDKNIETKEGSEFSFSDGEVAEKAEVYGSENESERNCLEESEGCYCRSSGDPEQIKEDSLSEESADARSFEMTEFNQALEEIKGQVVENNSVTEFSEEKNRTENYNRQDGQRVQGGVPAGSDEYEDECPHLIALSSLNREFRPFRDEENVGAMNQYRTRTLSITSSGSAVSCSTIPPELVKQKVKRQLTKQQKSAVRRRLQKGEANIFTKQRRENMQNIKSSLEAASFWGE
UniProt O43143: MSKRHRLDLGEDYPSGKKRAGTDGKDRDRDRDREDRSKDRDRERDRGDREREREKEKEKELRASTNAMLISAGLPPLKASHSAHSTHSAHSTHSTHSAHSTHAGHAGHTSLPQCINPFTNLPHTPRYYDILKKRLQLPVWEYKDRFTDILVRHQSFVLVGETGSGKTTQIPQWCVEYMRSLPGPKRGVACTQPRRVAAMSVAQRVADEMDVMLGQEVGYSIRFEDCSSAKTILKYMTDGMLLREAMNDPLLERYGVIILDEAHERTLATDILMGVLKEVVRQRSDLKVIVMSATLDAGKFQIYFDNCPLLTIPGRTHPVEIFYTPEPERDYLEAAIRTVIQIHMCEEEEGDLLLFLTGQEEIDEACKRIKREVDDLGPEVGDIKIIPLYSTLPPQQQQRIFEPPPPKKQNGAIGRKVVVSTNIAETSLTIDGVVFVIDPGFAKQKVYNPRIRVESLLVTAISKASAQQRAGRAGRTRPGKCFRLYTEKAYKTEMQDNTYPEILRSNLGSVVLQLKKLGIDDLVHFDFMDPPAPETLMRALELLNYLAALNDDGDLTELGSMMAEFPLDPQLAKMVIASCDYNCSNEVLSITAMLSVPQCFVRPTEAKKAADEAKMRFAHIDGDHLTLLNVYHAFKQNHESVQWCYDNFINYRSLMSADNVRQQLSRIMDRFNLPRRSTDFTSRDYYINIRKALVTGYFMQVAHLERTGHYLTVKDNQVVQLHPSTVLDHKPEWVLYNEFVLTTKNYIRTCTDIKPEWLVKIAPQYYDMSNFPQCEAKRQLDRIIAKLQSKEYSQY

These are yes or no findings as the source states them, for the method shown. For part of these data: Binding seen in cells or lysates may run through a third protein. Some results given as binding are weak or reduced against the parent protein; the word gives no strength. For part of these data: Where a sequence is shown, tags or fusion partners need not be part of it.

For one experiment, the target named is GST-tagged ENP1 (human) (UniProt Q13895). Put plainly: pull-down; 50 ng GST-tagged bait with equal amounts of His-tagged or untagged prey; 50 mM Tris-HCl pH 8.0, 10% glycerol, 300 mM NaCl, 5 mM MgCl2, 0.1% Tween20; 1 h at 4°C; glutathione sepharose; western blotting; both purified.
A further experiment has as its target FLAG-tagged DIM1 (human) (UniProt Q9UNQ2). In words: co-IP; whole cell extracts (sonication) of HEK293 cells expressing the FLAG-tagged bait at endogenous levels; anti-FLAG antibody coupled to protein G sepharose, non-antibody-bound beads as control; eluates western blotted for endogenous proteins.
Another experiment addresses T1, FLAG-tagged U3-55K (UniProt O43818).
T1 sequence: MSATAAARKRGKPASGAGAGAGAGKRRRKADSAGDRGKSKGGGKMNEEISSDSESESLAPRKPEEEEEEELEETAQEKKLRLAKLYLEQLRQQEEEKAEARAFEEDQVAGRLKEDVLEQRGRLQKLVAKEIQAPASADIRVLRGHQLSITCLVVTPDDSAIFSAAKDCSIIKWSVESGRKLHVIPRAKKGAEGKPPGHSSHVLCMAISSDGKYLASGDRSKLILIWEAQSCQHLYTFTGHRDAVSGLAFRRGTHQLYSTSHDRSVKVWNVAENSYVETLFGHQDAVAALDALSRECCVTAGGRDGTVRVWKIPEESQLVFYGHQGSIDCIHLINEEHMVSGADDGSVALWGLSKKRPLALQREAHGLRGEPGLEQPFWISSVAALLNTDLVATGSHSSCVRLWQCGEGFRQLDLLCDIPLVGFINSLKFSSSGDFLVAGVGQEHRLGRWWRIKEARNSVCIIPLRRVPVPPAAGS
The experiment is described as above.

A further experiment deals with FLAG-tagged PNO1 (human) (UniProt Q9NRX1). The description is as above.
The target in a further experiment is T2, FLAG-tagged NOB1 (human) (UniProt Q9ULX3).
T2 sequence: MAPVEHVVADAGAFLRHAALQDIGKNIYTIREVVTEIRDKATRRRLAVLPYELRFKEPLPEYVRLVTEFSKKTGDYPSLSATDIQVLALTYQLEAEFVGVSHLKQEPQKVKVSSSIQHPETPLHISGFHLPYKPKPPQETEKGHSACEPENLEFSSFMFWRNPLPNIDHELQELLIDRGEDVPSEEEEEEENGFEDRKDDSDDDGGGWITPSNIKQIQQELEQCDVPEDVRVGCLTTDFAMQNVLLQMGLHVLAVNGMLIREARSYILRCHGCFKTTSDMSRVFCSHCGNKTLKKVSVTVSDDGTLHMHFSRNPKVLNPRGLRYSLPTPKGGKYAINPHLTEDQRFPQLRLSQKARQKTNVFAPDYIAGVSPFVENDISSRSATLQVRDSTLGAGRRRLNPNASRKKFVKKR
The experiment is described as above.

In a further experiment the target is GST-tagged RIO2 (human) (UniProt Q9BVS4). Put plainly: pull-down; 50 ng GST-tagged bait with equal amounts of His-tagged or untagged prey; 50 mM Tris-HCl pH 8.0, 10% glycerol, 300 mM NaCl, 5 mM MgCl2, 0.1% Tween20; 1 h at 4°C; glutathione sepharose; western blotting; both purified.

In the case of “His-tagged DIM1 (from UniProt Q9UNQ2 1-313)”, the binding result with GST-tagged ENP1 (human) is “no binding”.
As to “endogenous PNO1 (from UniProt Q9NRX1 1-252)”, the binding result with FLAG-tagged DIM1 (human) is “binds weakly”; in the experiment with FLAG-tagged U3-55K, “binds”.
For the substance “endogenous PRP43 (from UniProt O43143 1-795)”, the binding result with FLAG-tagged PNO1 (human) and with FLAG-tagged NOB1 (human) was “no binding” in each case.
Regarding “endogenous RIO2 (from UniProt Q9BVS4 1-552)”, the results for the binding result in the experiment with FLAG-tagged PNO1 (human), with FLAG-tagged DIM1 (human) and with FLAG-tagged NOB1 (human) were “binds”, “binds weakly” and “binds”, respectively.
On to “untagged PNO1 (from UniProt Q9NRX1 1-252)”, for which, in the experiment with GST-tagged RIO2 (human), the binding result was “binds weakly”.
